Data reported in the supplement of paper PMC12217912.
The list shows a part of the results. Sequences were assembled here from the parent chain. Inactive controls read about 0.05.

B1: TEV protease; numbered along this chain (parent)
chain: MGESLFKGPRDYNPISSSICHLTNESDGHTTSLYGIGFGPFIITNKHLFRRNNGTLVVQSLHGVFKVKDTTTLQQHLVDGRDMIIIRMPKDFPPFPQKLKFREPQREERICLVTTNFQTKSMSSMVSDTSCTFPSGDGIFWKHWIQTKDGQCGSPLVSTRDGFIVGIHSASNFTNTNNYFTSVPKNFMELLTNQEAQQWVSGWRLNADSVLWGGHKVFMVKPEEPFQPVKEATQL

Variants of: B1
Test: raw area under fraction-flipped curve 0-4 h after induction (AUC4h, not background-subtracted), DNA-recorder readout of cleavage of the substrate (dimensionless); higher = more cleavage of the substrate by the protease variant
Details: temperature: 34 °C; time window: 0-4 h after rhamnose induction
Protocol: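 In vivo DNA recorder in E. coli TOP10(DE3) ΔrhaA at 34 °C. Each TEVp single-site mutant (parent TEVp 0) is paired with a single-site variant of the 7-mer TEVs (canonical ENLYFQ|S). The substrate sits between flexible linkers in a Bxb1-sfGFP-TEVs-SsrA fusion, so cleavage stabilises Bxb1 and speeds flipping of a recombination array, read by NGS. The value is the raw area under the fraction-flipped curve over 0-4 h after rhamnose induction (AUC4h), with ≥20 reads per time point. It is not background-subtracted; inactive controls average about 0.047.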
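Note: Bxb1 expression induced with 0.2% (w/v) L-rhamnose at OD600 near 0.5, cultures sampled hourly, flipped fraction per protease–substrate barcode pair counted by paired-end Illumina sequencing.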

Row | Variant | area with substrate ENLYFQA | area with substrate ENLYFQC | area with substrate ENLYFQL | area with substrate ENLYFQM | area with substrate ENLYFQN | area with substrate ENLYFQR | area with substrate ENLYFQS | area with substrate ENLYFQT | area with substrate ENLYFQV | area with substrate ENLYFQD | area with substrate ENLYFQF | area with substrate ENLYFQG | area with substrate ENLYFQH | area with substrate ENLYFQI | area with substrate ENLYFQK | area with substrate ENLYFQQ | area with substrate ENLYFQW | area with substrate ENLYFQP | area with substrate ENLYFQY | area with substrate ENLYFQE
1 | D82Y | 0.0464 | 0.0642 | 0.0544 | 0.06 | 0.0492 | 0.0549 | 0.0556 | 0.0558 | 0.0395 | – | – | – | – | – | – | – | – | – | – | –
2 | T71C | 0.112 | 0.114 | 0.0614 | 0.0795 | 0.0824 | 0.0532 | 0.0985 | 0.0575 | – | 0.0699 | 0.0501 | 0.0791 | 0.0729 | 0.0535 | 0.0575 | 0.0663 | 0.0574 | – | – | –
3 | T71L | 0.0878 | 0.148 | 0.06 | – | 0.0745 | 0.0671 | 0.107 | 0.0663 | 0.0495 | – | – | – | – | 0.072 | – | – | 0.0631 | 0.078 | – | –
4 | L77N | 0.0682 | 0.0685 | 0.0533 | – | 0.0609 | 0.0588 | 0.0673 | 0.0577 | 0.0948 | 0.0553 | 0.0614 | 0.077 | 0.0628 | 0.0532 | 0.0646 | 0.0655 | 0.0587 | – | 0.0655 | –
5 | H62F | 0.106 | 0.158 | 0.0575 | – | 0.0698 | 0.0526 | 0.0982 | 0.0571 | 0.06 | 0.0589 | – | 0.0956 | 0.082 | 0.0593 | 0.0656 | 0.061 | 0.0707 | 0.0559 | 0.0732 | –
6 | H62D | 0.087 | 0.119 | 0.0604 | 0.0685 | 0.083 | 0.0638 | 0.0971 | 0.0572 | – | 0.0639 | – | 0.0905 | 0.0817 | 0.0652 | 0.0516 | – | 0.0561 | 0.0496 | 0.0872 | –
7 | H62V | 0.0982 | 0.0957 | 0.0745 | – | 0.065 | 0.0562 | 0.0952 | 0.0606 | 0.056 | – | – | – | 0.0717 | 0.0454 | – | – | 0.0722 | – | 0.0709 | –
8 | K66P | 0.0936 | 0.0739 | 0.0679 | 0.0713 | 0.0708 | 0.0585 | 0.0909 | – | 0.0675 | 0.0533 | – | 0.0932 | 0.049 | 0.0723 | – | – | 0.0575 | – | 0.071 | 0.0734
9 | Q105C | 0.0786 | 0.117 | 0.0601 | – | 0.0718 | 0.0617 | 0.105 | 0.0582 | – | – | – | 0.0986 | 0.1 | 0.0594 | – | – | – | 0.0657 | 0.0756 | –
10 | Q105M | 0.0951 | 0.0963 | 0.0608 | 0.0937 | 0.137 | 0.0648 | 0.104 | 0.0675 | – | 0.0843 | – | 0.111 | 0.078 | 0.0571 | 0.0696 | – | 0.0694 | 0.0618 | 0.0721 | 0.0543
11 | E107A | 0.0789 | 0.0817 | 0.0665 | 0.0861 | – | 0.0612 | 0.102 | 0.0687 | 0.0646 | 0.0444 | – | 0.122 | – | 0.0488 | 0.0664 | – | – | – | – | –
12 | E107W | 0.0832 | 0.0754 | 0.0626 | 0.0808 | – | – | 0.0951 | – | 0.0751 | 0.0644 | 0.0782 | – | – | – | – | – | 0.0662 | – | – | –
13 | E108T | 0.0736 | 0.0626 | 0.0479 | 0.0727 | 0.0593 | 0.0418 | 0.0724 | 0.0493 | 0.0438 | 0.0487 | 0.0569 | 0.0512 | 0.0674 | 0.0533 | 0.0255 | 0.0496 | 0.0603 | – | – | –
14 | V57L | 0.0962 | – | 0.0599 | 0.0847 | – | 0.0727 | 0.111 | – | – | – | 0.116 | 0.0878 | 0.0831 | 0.0539 | – | – | 0.0372 | – | – | –
15 | V57G | 0.134 | 0.105 | – | – | 0.0815 | 0.0618 | 0.0968 | 0.0643 | – | – | 0.0935 | – | – | 0.0525 | – | 0.0661 | – | – | 0.0589 | –
16 | V57W | 0.0966 | 0.135 | 0.0919 | – | – | 0.0534 | 0.0982 | 0.0632 | 0.0472 | 0.0801 | – | 0.0942 | 0.0958 | 0.0643 | 0.0543 | – | – | 0.0668 | 0.086 | 0.0632
17 | C111T | 0.101 | 0.0896 | – | – | 0.0792 | 0.0617 | 0.107 | 0.0638 | – | 0.0732 | 0.101 | – | 0.0895 | 0.0683 | – | – | 0.0335 | 0.0601 | 0.0776 | 0.0642
18 | C111Y | 0.137 | 0.107 | – | 0.0991 | 0.0721 | 0.0575 | 0.106 | 0.0995 | 0.0666 | – | 0.0843 | 0.0628 | 0.094 | – | 0.0732 | 0.0638 | 0.0588 | 0.0693 | – | 0.0569
19 | V113P | 0.0844 | 0.077 | 0.0509 | 0.0704 | 0.065 | 0.067 | 0.072 | – | 0.0516 | – | 0.0636 | 0.0743 | 0.0613 | 0.068 | – | 0.0655 | 0.0633 | – | – | –
20 | Q74V | 0.0659 | 0.0729 | 0.0682 | 0.0771 | 0.0569 | 0.059 | 0.0714 | 0.0624 | 0.0599 | 0.0546 | 0.0624 | 0.0737 | 0.063 | – | 0.0514 | – | 0.0593 | 0.0532 | 0.0664 | –
21 | T70S | 0.0996 | 0.114 | 0.0597 | 0.0973 | 0.0676 | 0.0468 | 0.0985 | 0.0629 | 0.0729 | 0.0897 | 0.0984 | – | – | – | 0.0824 | – | – | 0.0631 | – | –
22 | K98I | 0.0661 | 0.115 | 0.0576 | 0.0586 | 0.0763 | 0.0553 | 0.101 | 0.0395 | 0.0615 | – | 0.0756 | 0.0968 | 0.0804 | 0.0574 | – | 0.0617 | 0.067 | 0.0608 | 0.0751 | 0.0709
23 | F92H | 0.117 | 0.109 | – | – | – | – | 0.104 | – | – | 0.0697 | – | – | – | 0.0531 | 0.0605 | – | – | – | – | –
24 | D91H | 0.102 | 0.0857 | 0.0506 | 0.0661 | – | – | 0.103 | 0.0501 | 0.0618 | 0.0624 | – | 0.0613 | – | 0.0652 | 0.0662 | – | 0.0432 | – | 0.0803 | –
25 | D91P | 0.0931 | 0.0979 | 0.0511 | 0.0942 | 0.065 | 0.066 | 0.113 | 0.082 | 0.0306 | 0.0734 | – | – | – | – | – | – | – | – | 0.0961 | –
26 | V67D | 0.0595 | 0.0787 | 0.0377 | – | 0.0517 | 0.054 | 0.0598 | 0.0556 | 0.0582 | 0.0563 | – | – | 0.0455 | 0.0393 | 0.0517 | – | 0.0417 | 0.0633 | 0.0434 | –
